# In the supplement of paper PMC3334620:
# In all, about 33,000 sequences were measured (“E-score (-0.5 to 0.5)”: median about -0.043, highest 2% from about 0.37 on). The list shows a part of the results.
# Target: T1, Upc2 (UniProt Q12151)
# T1 sequence: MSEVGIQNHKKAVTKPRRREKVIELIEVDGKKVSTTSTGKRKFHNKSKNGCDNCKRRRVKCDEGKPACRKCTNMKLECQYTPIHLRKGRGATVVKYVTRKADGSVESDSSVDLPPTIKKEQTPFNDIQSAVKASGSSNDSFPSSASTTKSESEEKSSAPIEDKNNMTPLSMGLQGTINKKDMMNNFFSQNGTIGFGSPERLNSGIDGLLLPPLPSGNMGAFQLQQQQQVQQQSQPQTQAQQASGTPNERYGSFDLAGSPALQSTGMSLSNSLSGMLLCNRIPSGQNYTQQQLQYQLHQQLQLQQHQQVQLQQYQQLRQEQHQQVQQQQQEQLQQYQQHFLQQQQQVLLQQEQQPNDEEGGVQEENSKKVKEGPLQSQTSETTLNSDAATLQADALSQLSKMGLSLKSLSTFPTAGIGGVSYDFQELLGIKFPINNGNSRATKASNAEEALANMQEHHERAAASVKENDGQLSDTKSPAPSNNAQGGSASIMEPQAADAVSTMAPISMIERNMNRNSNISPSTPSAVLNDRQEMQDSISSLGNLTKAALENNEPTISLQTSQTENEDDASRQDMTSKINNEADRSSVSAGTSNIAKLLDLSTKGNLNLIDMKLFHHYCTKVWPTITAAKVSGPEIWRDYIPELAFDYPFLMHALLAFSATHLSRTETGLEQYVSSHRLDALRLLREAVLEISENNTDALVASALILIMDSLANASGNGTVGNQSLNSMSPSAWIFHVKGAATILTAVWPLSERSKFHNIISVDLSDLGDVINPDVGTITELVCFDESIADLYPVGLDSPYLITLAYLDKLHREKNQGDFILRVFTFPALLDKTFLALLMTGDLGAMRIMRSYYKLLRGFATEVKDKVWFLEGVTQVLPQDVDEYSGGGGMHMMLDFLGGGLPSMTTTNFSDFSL
# Assay: PBM E-score (8-mer binding enrichment) (E-score (-0.5 to 0.5)); higher = stronger / more preferred TF binding; most listed sequences are background and not binding sites
# Conditions: protein concentration: 200 nM; construct: GST-full length
# Summary of the method: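 Yeast transcription factors, full-length or as DNA-binding domains, were expressed with a GST tag using PURExpress in vitro transcription/translation. At about 100-200 nM they were applied to universal all-10-mer Agilent arrays, double-stranded by primer extension on fresh or once-stripped slides. Fluorescent anti-GST detected bound protein, and masliner normalised the scans. E-scores for ungapped eight-base words, pooled with reverse complements, came from the Universal PBM Analysis Suite.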
row,Sequence,PBM E-score
1,CATGATGC,-0.211
2,ATGGCTAG,0.0528
3,AGATGCAT,-0.091
4,CAACTCAG,-0.163
5,ACCTTACG,0.235
6,GGATATTA,-0.0867
7,AGGTGAGA,-0.184
8,CTAGTACA,-0.155
9,GGCTATTA,-0.00322
10,AGAGCCGA,-0.117
11,AGCTTTCC,-0.201
12,ATCCGAAC,0.146
13,ACCACGAA,-0.0926
14,ACGTGATG,-0.0394
15,AAACAGCG,0.122
16,GTGGACGA,-0.165
17,CGTACCAA,0.392
18,CTCTGTGA,-0.189
19,GACTATTA,-0.0421
20,TTTAAAAA,0.0646
21,CATGTAGG,-0.112
22,ATGGATAA,-0.083

row,Sequence,PBM E-score
1,AGGGAATC,-0.134
2,ATAACGAT,0.144
3,ATGGCAGC,-0.123
4,AGGAAAAC,0.0203
5,CTCACTGC,-0.24
6,CACGGAGG,-0.124
7,CATACGGG,0.367
8,CAAGTATA,0.101
9,AGGGAAGA,-0.199
10,AGCCGTCG,0.174
11,AAATACTG,-0.0466
12,ACTGCGCG,0.0273
13,CGCTGGAC,-0.126
14,AGTTTCAC,-0.0788
15,CAGTTGGG,-0.0119
16,ATAATCGA,0.12
17,AGAGTGGG,0.0465
18,ACTTCCGC,-0.0321
19,CAGTTCCC,0.00928
20,ACGGCTGC,0.1
21,CTCAGGAG,-0.249
22,CAGACTAG,-0.313

row,Sequence,PBM E-score
1,CCATCGAA,-0.132
2,CACCAGTG,-0.235
3,ACATGACT,-0.234
4,CGCAGTCA,-0.228
5,ACCTGTGG,-0.114
6,CTATTGCA,0.00121
7,ACGCATAC,0.248
8,ACCGTCGC,0.233
9,AAAATGAC,-0.0293
10,ACCCTCGA,-0.244
11,GTACAAGA,0.13
12,AGCTGTTA,0.0162
13,AGAACCCT,-0.0265
14,CAAATAGA,-0.0516
15,CTCCTAGA,-0.195
16,ATTGAGCA,-0.0735
17,AAGCTGTA,0.128
18,AACCTAGC,-0.0649
19,CCGTTGGA,-0.249
20,AGAGAGAG,-0.0416
21,GATTGTCA,-0.00158
22,ATAACCCA,-0.0431

row,Sequence,PBM E-score
1,TCCGACGA,0.123
2,CAATTCCC,-0.165
3,CATTGCAC,0.0773
4,TGCGTCAA,-0.195
5,ACATTAAT,-0.057
6,CTTCAATC,-0.0551
7,CGGAGGGC,-0.066
8,AGCACTGG,-0.157
9,CCACTGAG,-0.205
10,GATCCAAA,-0.0187
11,TACTACTA,0.21
12,AGCTCACC,-0.0772
13,AGTCCGAG,-0.116
14,ACAACCAT,0.0423
15,ACACTCGT,0.325
16,CTCATCTA,0.0427
17,TACCGGGA,-0.0406
18,AGTACAGA,-0.0613
19,AACATTAA,0.0427
20,CGAATCAG,0.0335
